B1: DOMAIN_23217 (protein, listed as Vombatus ursinus)
chain: FQESVTFQDVAVDFTWEEWGHLGPAQKELYREVMLENYRNLVCLGLEVSKPDVVCQLERGEAPWMPEGAVPRSCSQNWGAR
B2: DOMAIN_22768 (protein, listed as Ursus maritimus)
chain: SQEPVTFEDVAVYFTQNQWASLDPTQRALYREVMLENYANITSLAAFPFPKPDLILQLERGEARWGLDPWIAIEGEALGGV
B3: DOMAIN_22710 (protein, listed as Propithecus coquereli)
chain: ESVTFEDVAVYFSENEWIGLGPAQRALYRDVMLENYGAVASLAFPFPKPALISQLERGEAPWCSAPQGALDGESPRGISSE
B4: DOMAIN_23200 (protein, listed as Ursus americanus)
chain: QAEVTFEDVAVLFSREEWGRLGPAQRGLYRDVMLETYRNLVSLGAGPAAPKPGVITQLERGDEPWVLDAQGAKGKERLRVS
B5: DOMAIN_22667 (protein, listed as Saimiri boliviensis)
chain: KPGALSFADVAVYFSPEEWGCLRPAQRALYRDVMRETYGHLGALGFPGPKPALISWMEQESEAWSSAAQDPEKGESLGGAR
B6: DOMAIN_22771 (protein, listed as Ursus americanus)
chain: RPRAVKFADVAVYFSPEEWGCLRPAQRALYRDVMRETYGHLGALGFPGPKPALISWMEQESEAWSPDAQDPEEGESLGGAL
B7: DOMAIN_22944 (protein, listed as Muntiacus reevesi)
chain: KPLAVRFADVAVYFSPEEWGCLLPAQRALYRDVMRETYGHLGALGFPGPKPALISWMEQESEAWSPDAQDPEEGESLGGAL
B8: DOMAIN_23012 (protein, listed as Cervus elaphus)
chain: SEGLVTFGDVAVDFSQEEWEWLNPAQRSLYRKVMLDNYRSLVSLGVSVSKPDVISLLEQGKEPWLVKEEGPRGARSDWEYA
B9: DOMAIN_23215 (protein, listed as Vombatus ursinus)
chain: TQESVMFEDVAVDFTREEWSHLDPAQRALYREVMLENYENLVSLGLPVSKLDVISLLERGEAPWRPEGGGPRCSCPDPFIE
B10: DOMAIN_22740 (protein, listed as Panthera pardus)
chain: SYGSLSFEDVTVGFSQEEWQHLDPAQRTLYRDVMLENYSHLVAVGCCVPKPDVIFRLEQGQQPWIVEEESLDQSCPEVCKV
B11: DOMAIN_22939 (protein, listed as Muntiacus reevesi)
chain: PQEPVTFADVAVLFTPEEWLFLDSAQKSLYRDVMLENYRNLASVGDQLCKTKMSSHMEQREELCVTERGVFPGAHLGPHLQ
B12: DOMAIN_22782 (protein, listed as Vombatus ursinus)
chain: FQGSVTFQDVAVVFTPEEWGHLEPSQKELYREVMLENFRNLVCLGLVVYKPSVIYQLERGGAPWKPGGGGRRSGSSDWETL
B13: DOMAIN_22669 (protein, listed as Balaenoptera acutorostrata)
chain: TQVSVTFDDVAVTFTREEWRQLDPAQRTLYQEVMLENCRLLVSLGCPVPRPELIFQLEQGQKLWTVKEDLSRSTCPGKRYR
B14: DOMAIN_22692 (protein, listed as Propithecus coquereli)
chain: GSVMFSDVSVDFSQDEWECLDPVQRDLYREVMLENYSNLVSVGLYIPKPQVISLLEQGKEPWMVGKELTRGLCSDLESMCE
B15: DOMAIN_22615 (protein, listed as Homo sapiens)
chain: PQKSVTFEDVAVYFTQAEWDGLSPAQRTLYRDVMLENYGNVASLGFPLLKPAVISQLEGGSELGGSSPLAAGTGLQGLQTV
B16: DOMAIN_23009 (protein, listed as Saimiri boliviensis)
chain: PQESVAFDDVAVYFTKKEWAIMVPDQRALYRDVMLENYEAVAFVVPPTSKPALVSHLEQGKEPCFTQPQGVLSRSNWRAGF
B17: DOMAIN_23082 (protein, listed as Mustela putorius)
chain: SKVPVTFGDLAIYFSQEEWEWLSPIQKDLYEDVMLENYQNLVSVGLSFRRPNVITLLEKGRAPWMVEPVRKRRGMDSGSKC
B18: DOMAIN_23196 (protein, listed as Odobenus rosmarus)
chain: SKVPVTFGDLAIYFSQEEWEWLSPIQKDLYEDVMLENYQNLVSLGLSFRRPNVITLLEKGKAPWIVEPVRKRRGVDSGSKS
B19: DOMAIN_23050 (protein, listed as Balaenoptera acutorostrata)
chain: MDSVTIEDVAVDFTLEEWALLDPSQRKLYRDVMQETLRNLAAVGAKREYHDIEDQYKNQGRKLRTFMVERFCKSKDISLCG
B20: DOMAIN_23250 (protein)
chain: MDSVTIEDVAVDFTLEEWALLGPSQRKLYRDVMQETLRNLAAVGAKREYHDIEDQYKNQGRKLRTFMVERLCKSKDISLCG
modifications: Delphinapterus leucas
B21: DOMAIN_22742 (protein, listed as Panthera pardus)
chain: FQASVVFEDVAVNFTPEEWALLNRGQRKLYRDVMLETCRNLSAVEKQKFHSSGDLTRMQEGLLRSPLVESVCERIEGDPCG
B22: DOMAIN_23007 (protein, listed as Lynx pardinus)
chain: AQAPLSFEDVAVSFSREEWRLLVPAQKDLYRDVMLENYRNLVSVGYQASEPDSLFQLEHGGPLWAVEGAAPRPPCPGFVLQ
B23: DOMAIN_22776 (protein, listed as Propithecus coquereli)
chain: MTFEDVTVEFTPWEWGQLDPAQKDLYREVMLENFRNLASLGLPVSKPHVICQLEEGEEPCVLEREISVGAQSDLKRRPKAK
B24: DOMAIN_23039 (protein, listed as Saimiri boliviensis)
chain: IQRLLTFGDVAVAFTRIEWRHLDAAQRALYRDVMLENYGNLVSVGLLSSKPKLIAQLEQGAEPWMEARETPSGTRAVPDYW
B25: DOMAIN_23181 (protein, listed as Colobus angolensis)
chain: SLTLEDVAVDFTWEEWQLLGPAQKDLYRDVMLENYSNLVAVGYQASKPDALSKLEQGEEPCTTEDEIYTRICCGGQPQTCS
B26: DOMAIN_23013 (protein, listed as Cervus elaphus)
chain: TSEPVSFADVAVYFSQEEWGCLQPAQRALYRDVMRETYGHLGALGFRGTKPALISWVEEEAELWGPDAGPPEMGECLTEAD
B27: DOMAIN_22928 (protein, listed as Tupaia chinensis)
chain: VQGSVTFRDVAVLFSQDEWLHLDTAQRTLYREVMLENYSNLVSLGILFSKPKVISQLEQGQDPWKVEHGAPQGTCPGWESL
B28: DOMAIN_23109 (protein, listed as Mustela putorius)
chain: LQGLLTFRDVAIEFSEEEWGCLTHTQRQLYRDVMLENYGHLHFLGLLLSKPDLIMFLEQEKQLWDVKRKESRGFSPESQCL
B29: DOMAIN_23011 (protein, listed as Cervus elaphus)
chain: RTSAFPFQAPVTFGDLAIYFSQEEWEWLSPIQKDLYEDVMLENYQNLVSLGLCFRRPNVITLLEKGKAPWMVDPVKRRRGL
B30: DOMAIN_23136 (protein)
chain: SQGLVTFGDVAVDFSQEEWEWLDCAQRTLYRSVMLENYRSLVSLGLCVSKPEMISSLEQRKEPWTVKRKWTRGQCPDSEAV
modifications: Vicugna pacos
B31: DOMAIN_23041 (protein, listed as Vombatus ursinus)
chain: FQESVMFEDVAVYFTQKEWADLAPAQRALYRDVMLENYGNMVSLAFPFPKPAVISKLERGEEPWGLDPQVVPNEEGLKGFP
B32: DOMAIN_22937 (protein)
chain: PQVLVSFEDVAVFLSREEWGCLGPAQRGLYRDVMLETYRNLISLGFQDSKPDVISKLEEGEEPWAPYSPRIEEGWIQSHGS
modifications: Ursus arctos
B33: DOMAIN_23239 (protein)
chain: RPESVTFEDVAIYFSENEWTGLAPAQRALYRDVMLENYGALASLAFPFPKPALIFQLEQGEAPWSSAPQGALDGEGPRGIS
modifications: Vicugna pacos
B34: DOMAIN_623 (protein, listed as Pan paniscus)
chain: MSLGSELFRDVAIVFSQEEWQWLAPAQRDLYRDVMLETYSNLVSLGLAVSKPDVISFLEQGKEPWMVERVVSGGLCPGAKG
B35: DOMAIN_624 (protein, listed as Pan paniscus)
chain: MSLGSELFRDVAIVFSQEEWQWLAPAQRDLYRDVMLETYSNLVSLGLAVSKPDVISFLEQGKEPWMVERVVSGGLCPVLES
B36: DOMAIN_621 (protein, listed as Pan paniscus)
chain: MAQCLVTFADVAIDFSQEEWACLNSAQRDLYWDVMLENYSNLVSLDLESAYENKSLPTEKNIHEIRASKRNSDRRSKSLGR

tested on: HBEGF locus; format: cell-based, human; details: high-throughput screen of dXR repression of the HBEGF gene; abundance of each domain in the library before vs after diphtheria toxin selection; listed domains met p-value <0.01 and log2(fold change) >2

Molecule	Log2 (fold change)
B1	4.1674
B2	4.0609
B3	3.4387
B4	3.755
B5	3.4947
B6	3.3498
B7	3.3908
B8	3.6131
B9	3.0212
B10	2.692
B11	3.6187
B12	3.1663
B13	3.583
B14	3.2791
B15	3.0957
B16	3.1269
B17	3.9481

Molecule	Log2 (fold change)
B18	4.3363
B19	2.9754
B20	2.71
B21	2.9133
B22	3.7329
B23	2.7757
B24	2.8829
B25	2.7665
B26	3.4615
B27	3.0141
B28	2.9639
B29	3.6236
B30	3.285
B31	3.6194
B32	3.0779
B33	3.0945

same assay, conditions: high-throughput screen of dXR repression of the HBEGF gene; change in abundance of each domain in the library before and after diphtheria toxin selection

Molecule	Log2 (fold change)
B34	3.3299
B35	2.8281
B36	2.1025
